# The supplement of paper PMC8728848
# The list shows a part of the results.
# B1: Fm1D (Escherichia coli) (protein)
# chain: FSCNVDGGSSIGAGTTSVYVNLDPVIQPGQNLVVDLSQHISCWNDYGGWYDTDHINLVQGSAFAGSLQSYKGSLYWNNVTYPFPLTTNTNVLDIGDKTPMPLPLKLYITPVGAAGGVVIKAGEVIARIHMYKIATLGSGNPRNFTWNIISNNSVVMPTHHHHHH
# Tests used:
# Assay in all cases: glycan array binding signal (z-score within array); higher = stronger binding
# Conditions in all cases: glycan notation: IUPAC condensed, linker removed
# Gal(b1-3)GlcNAc6S = target: Gal(b1-3)GlcNAc6S
# Procedure, shortened: (§1)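 Glycan array binding is given as a within-array Z-score, which can be read as non-binding when negative. The arrays, 3228 of them, came from the Consortium for Functional Glycomics database and were retained only where the protein sequence was available. Z-scores were averaged across arrays of the same protein sequence at different concentrations or buffers and across linkers.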
# [1] = target: Gal(b1-3)[Fuc(a1-4)]GlcNAc
# Procedure, shortened: as §1
# [2] = target: Gal(b1-3)[Fuc(a1-4)]GlcNAc(b1-2)Man
# Procedure, shortened: as §1
# [3] = target: Gal(b1-3)[Fuc(a1-4)]GlcNAc(b1-2)Man(a1-3)[Gal(b1-3)[Fuc(a1-4)]GlcNAc(b1-2)Man(a1-6)]Man(b1-4)GlcNAc(b1-4)[Fuc(a1-6)]GlcNAc
# Procedure, shortened: as §1
# [4] = target: Gal(b1-3)[Fuc(a1-4)]GlcNAc(b1-3)Gal(b1-3)[Fuc(a1-4)]GlcNAc
# Procedure, shortened: as §1
# [5] = target: Gal(b1-3)[Fuc(a1-4)]GlcNAc(b1-3)Gal(b1-4)[Fuc(a1-3)]GlcNAc
# Procedure, shortened: as §1
# [6] = target: Gal(b1-3)[Fuc(a1-4)]GlcNAc(b1-6)GalNAc
# Procedure, shortened: as §1
# [7] = target: Gal(b1-3)[GlcNAc(b1-6)]GalNAc
# Procedure, shortened: as §1
# [8] = target: Gal(b1-3)[Neu5Ac(a2-6)]GalNAc
# Procedure, shortened: as §1
# [9] = target: Gal(b1-3)[Neu5Ac(a2-6)]GlcNAc(b1-4)Gal(b1-4)Glc
# Procedure, shortened: as §1
# [10] = target: Gal(b1-3)[Neu5Ac(b2-6)]GalNAc
# Procedure, shortened: as §1
# Gal(b1-4)Gal = target: Gal(b1-4)Gal
# Procedure, shortened: as §1
# [11] = target: Gal(b1-4)GalNAc(a1-3)[Fuc(a1-2)]Gal(b1-4)GlcNAc
# Procedure, shortened: as §1
# [12] = target: Gal(b1-4)GalNAc(b1-3)[Fuc(a1-2)]Gal(b1-4)GlcNAc
# Procedure, shortened: as §1
# Gal(b1-4)Glc = target: Gal(b1-4)Glc
# Procedure, shortened: as §1
# Gal(b1-4)Glc6S = target: Gal(b1-4)Glc6S
# Procedure, shortened: as §1
# Gal(b1-4)GlcNAc = target: Gal(b1-4)GlcNAc
# Procedure, shortened: as §1
# [13] = target: Gal(b1-4)GlcNAc(a1-6)Gal(b1-4)GlcNAc
# Procedure, shortened: as §1
# Gal(b1-4)GlcNAc(b1-2)Man = target: Gal(b1-4)GlcNAc(b1-2)Man
# Procedure, shortened: as §1
# [14] = target: Gal(b1-4)GlcNAc(b1-2)Man(a1-3)Man(b1-4)GlcNAc(b1-4)GlcNAc
# Procedure, shortened: as §1
# [15] = target: Gal(b1-4)GlcNAc(b1-2)Man(a1-3)[Gal(b1-4)GlcNAc(b1-2)Man(a1-6)]Man(b1-4)GlcNAc(b1-4)GlcNAc
# Procedure, shortened: as §1
# [16] = target: Gal(b1-4)GlcNAc(b1-2)Man(a1-3)[Gal(b1-4)GlcNAc(b1-2)Man(a1-6)]Man(b1-4)GlcNAc(b1-4)[Fuc(a1-6)]GlcNAc
# Procedure, shortened: as §1
# [17] = target: Gal(b1-4)GlcNAc(b1-2)Man(a1-3)[Gal(b1-4)GlcNAc(b1-2)Man(a1-6)][Gal(b1-4)GlcNAc(b1-4)]Man(b1-4)GlcNAc(b1-4)[Fuc(a1-6)]GlcNAc
# Procedure, shortened: as §1
# [18] = target: Gal(b1-4)GlcNAc(b1-2)Man(a1-3)[Gal(b1-4)GlcNAc(b1-2)Man(a1-6)][GlcNAc(b1-4)]Man(b1-4)GlcNAc(b1-4)[Fuc(a1-6)]GlcNAc
# Procedure, shortened: as §1
# [19] = target: Gal(b1-4)GlcNAc(b1-2)Man(a1-3)[GlcNAc(b1-2)Man(a1-6)]Man(b1-4)GlcNAc(b1-4)GlcNAc
# Procedure, shortened: as §1
# [20] = target: Gal(b1-4)GlcNAc(b1-2)Man(a1-3)[GlcNAc(b1-4)][Gal(b1-4)GlcNAc(b1-2)Man(a1-6)]Man(b1-4)GlcNAc(b1-4)GlcNAc
# Procedure, shortened: as §1
# [21] = target: Gal(b1-4)GlcNAc(b1-2)Man(a1-3)[Man(a1-6)]Man(b1-4)GlcNAc(b1-4)GlcNAc
# Procedure, shortened: as §1
# [22] = target: Gal(b1-4)GlcNAc(b1-2)Man(a1-6)Man(b1-4)GlcNAc(b1-4)GlcNAc
# Procedure, shortened: as §1
# [23] = target: Gal(b1-4)GlcNAc(b1-2)Man(a1-6)[GlcNAc(b1-2)Man(a1-3)]Man(b1-4)GlcNAc(b1-4)GlcNAc
# Procedure, shortened: as §1
# [24] = target: Gal(b1-4)GlcNAc(b1-2)Man(a1-6)[Man(a1-3)]Man(b1-4)GlcNAc(b1-4)GlcNAc
# Procedure, shortened: as §1
# [25] = target: Gal(b1-4)GlcNAc(b1-2)[Gal(b1-4)GlcNAc(b1-4)]Man(a1-3)[Gal(b1-4)GlcNAc(b1-2)Man(a1-6)]Man(b1-4)GlcNAc(b1-4)GlcNAc
# Procedure, shortened: as §1
# [26] = target: Gal(b1-4)GlcNAc(b1-2)[Gal(b1-4)GlcNAc(b1-4)]Man(a1-3)[Gal(b1-4)GlcNAc(b1-2)[Gal(b1-4)GlcNAc(b1-6)]Man(a1-6)]Man(b1-4)GlcNAc(b1-4)GlcNAc
# Procedure, shortened: as §1
# [27] = target: Gal(b1-4)GlcNAc(b1-2)[Gal(b1-4)GlcNAc(b1-4)]Man(a1-3)[GlcNAc(b1-4)][Gal(b1-4)GlcNAc(b1-2)Man(a1-6)]Man(b1-4)GlcNAc(b1-4)GlcNAc
# Procedure, shortened: as §1
# [28] = target: Gal(b1-4)GlcNAc(b1-2)[Gal(b1-4)GlcNAc(b1-4)]Man(a1-3)[GlcNAc(b1-4)][Gal(b1-4)GlcNAc(b1-2)[Gal(b1-4)GlcNAc(b1-6)]Man(a1-6)]Man(b1-4)GlcNAc(b1-4)GlcNAc
# Procedure, shortened: as §1
# [29] = target: Gal(b1-4)GlcNAc(b1-2)[Gal(b1-4)GlcNAc(b1-6)]Man(a1-6)[Gal(b1-4)GlcNAc(b1-2)Man(a1-3)]Man(b1-4)GlcNAc(b1-4)GlcNAc
# Procedure, shortened: as §1
# [30] = target: Gal(b1-4)GlcNAc(b1-2)[Gal(b1-4)GlcNAc(b1-6)]Man(a1-6)[Gal(b1-4)GlcNAc(b1-2)Man(a1-3)]Man(b1-4)GlcNAc(b1-4)[Fuc(a1-6)]GlcNAc
# Procedure, shortened: as §1
# [31] = target: Gal(b1-4)GlcNAc(b1-2)[Gal(b1-4)GlcNAc(b1-6)]Man(a1-6)[GlcNAc(b1-4)][Gal(b1-4)GlcNAc(b1-2)Man(a1-3)]Man(b1-4)GlcNAc(b1-4)GlcNAc
# Procedure, shortened: as §1
# [32] = target: Gal(b1-4)GlcNAc(b1-2)[Gal(b1-4)GlcNAc(b1-6)]Man(a1-6)[GlcNAc(b1-4)][Gal(b1-4)GlcNAc(b1-2)[Gal(b1-4)GlcNAc(b1-4)]Man(a1-3)]Man(b1-4)GlcNAc(b1-4)[Fuc(a1-6)]GlcNAc
# Procedure, shortened: as §1
# [33] = target: Gal(b1-4)GlcNAc(b1-3)Gal(b1-3)GalNAc
# Procedure, shortened: as §1
# [34] = target: Gal(b1-4)GlcNAc(b1-3)Gal(b1-3)GlcNAc
# Procedure, shortened: as §1
# [35] = target: Gal(b1-4)GlcNAc(b1-3)Gal(b1-4)Glc
# Procedure, shortened: as §1
# [36] = target: Gal(b1-4)GlcNAc(b1-3)Gal(b1-4)GlcNAc
# Procedure, shortened: as §1
# [37] = target: Gal(b1-4)GlcNAc(b1-3)Gal(b1-4)GlcNAc(b1-2)Man(a1-3)[Gal(b1-4)GlcNAc(b1-3)Gal(b1-4)GlcNAc(b1-2)Man(a1-6)]Man(b1-4)GlcNAc(b1-4)GlcNAc
# Procedure, shortened: as §1
# [38] = target: Gal(b1-4)GlcNAc(b1-3)Gal(b1-4)GlcNAc(b1-2)Man(a1-3)[Gal(b1-4)GlcNAc(b1-3)Gal(b1-4)GlcNAc(b1-2)Man(a1-6)]Man(b1-4)GlcNAc(b1-4)[Fuc(a1-6)]GlcNAc
# Procedure, shortened: as §1
# [39] = target: Gal(b1-4)GlcNAc(b1-3)Gal(b1-4)GlcNAc(b1-2)[Gal(b1-4)GlcNAc(b1-3)Gal(b1-4)GlcNAc(b1-6)]Man(a1-6)[Gal(b1-4)GlcNAc(b1-3)Gal(b1-4)GlcNAc(b1-2)Man(a1-3)]Man(b1-4)GlcNAc(b1-4)GlcNAc
# Procedure, shortened: as §1
binder,measurement,setting,value
B1,glycan array binding signal (z-score),Gal(b1-3)GlcNAc6S,-0.146
same,glycan array binding signal (z-score),[1],-0.146
same,glycan array binding signal (z-score),[2],-0.142
same,glycan array binding signal (z-score),[3],-0.125
same,glycan array binding signal (z-score),[4],-0.146
same,glycan array binding signal (z-score),[5],-0.145
same,glycan array binding signal (z-score),[6],-0.135
same,glycan array binding signal (z-score),[7],4.94
same,glycan array binding signal (z-score),[8],3.04
same,glycan array binding signal (z-score),[9],-0.148
same,glycan array binding signal (z-score),[10],0.355
same,glycan array binding signal (z-score),Gal(b1-4)Gal,-0.144
same,glycan array binding signal (z-score),[11],-0.144
same,glycan array binding signal (z-score),[12],-0.149
same,glycan array binding signal (z-score),Gal(b1-4)Glc,-0.145
same,glycan array binding signal (z-score),Gal(b1-4)Glc6S,-0.142
same,glycan array binding signal (z-score),Gal(b1-4)GlcNAc,-0.147
same,glycan array binding signal (z-score),[13],-0.143
same,glycan array binding signal (z-score),Gal(b1-4)GlcNAc(b1-2)Man,-0.139
same,glycan array binding signal (z-score),[14],-0.148
same,glycan array binding signal (z-score),[15],-0.145
same,glycan array binding signal (z-score),[16],-0.125
same,glycan array binding signal (z-score),[17],-0.143
same,glycan array binding signal (z-score),[18],-0.143
same,glycan array binding signal (z-score),[19],-0.146
same,glycan array binding signal (z-score),[20],-0.146
same,glycan array binding signal (z-score),[21],-0.146
same,glycan array binding signal (z-score),[22],-0.147
same,glycan array binding signal (z-score),[23],-0.145
same,glycan array binding signal (z-score),[24],-0.144
same,glycan array binding signal (z-score),[25],-0.142
same,glycan array binding signal (z-score),[26],-0.139
same,glycan array binding signal (z-score),[27],-0.147
same,glycan array binding signal (z-score),[28],-0.146
same,glycan array binding signal (z-score),[29],-0.146
same,glycan array binding signal (z-score),[30],-0.14
same,glycan array binding signal (z-score),[31],-0.151
same,glycan array binding signal (z-score),[32],-0.144
same,glycan array binding signal (z-score),[33],-0.145
same,glycan array binding signal (z-score),[34],-0.144
same,glycan array binding signal (z-score),[35],-0.147
same,glycan array binding signal (z-score),[36],-0.146
same,glycan array binding signal (z-score),[37],-0.138
same,glycan array binding signal (z-score),[38],-0.138
same,glycan array binding signal (z-score),[39],-0.128
